# In all, about 380,000 compounds went through this assay and about 4,000 (1.1%) were called active. Inconclusive results, whose numbers are uncertain, are shown with a selection of clear calls. Calls follow the shape of the dose curve; as a rule, active = well fitted activation curve with a large enough effect; inconclusive = small, poorly fitted or top-dose-only effect; inactive = no such curve, though single readings can be large or run the other way. Where the call is inconclusive, the potency comes from a doubtful curve fit.
# Assay: qHTS Assay to Identify Small Molecule Activators of BRCA1 Expression; also: nearly all actives have a fitted effect of over 80% in size
# Details: MCF7-BRCA1-FFLuc reporter, luminescence, 48 h; activation: at 46.1 µM (top of the series), scaled: vehicle 0%, 10 µM genistein 100% unless noted
# In short: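 Cells: MCF7-BRCA1-FFLuc, 2000/well. Exposure: 48 h, 37 °C, 5% CO2. Read: luminescence, 15 min post-substrate. Controls: genistein 10 microM (maximal activation), DMSO (neutral).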
# Tags tell the direction and shape of the fitted curve.
Compound,Potency,activation
O=C(Oc1cccc(Nc2ncnc3ccccc23)c1)c1cccnc1,inactive,
Cc1ccc(NC(=O)c2ccc(S(=O)(=O)N(C)c3ccccc3)cc2)cc1S(=O)(=O)N1CCOCC1,inactive,
COc1cccc(N/C=C/C(=O)c2ccc(OC)c(OC)c2)c1,"inconclusive: 10 µM [activator, partial curve, poor fit]",
COc1ccc(C(=O)N2CCC(n3nccc3NC(=O)C3CCOC3)CC2)cc1 (stereo not drawn),inactive,
Cc1cccc(NC(=O)c2onc3c2CCCC3)c1C,"inconclusive: 2 µM [activator, full curve, poor fit]",
CN(CC(=O)Nc1ccc(OC(F)(F)F)cc1)C(=O)Cc1ccc2c(c1)CCC2,inactive,
C/C(=N\NC(=O)c1ccc(Cl)cc1)c1ccc(Br)s1,inactive,
Oc1ccc(/C=N/Nc2ccc(C(F)(F)F)cn2)cc1O,"inconclusive: 2.51 µM [activator, partial curve, poor fit]",
CCCCC(=O)Nc1nnc(/C=C/c2ccc(OC)cc2)s1,"inconclusive: 3.16 µM [activator, partial curve, poor fit]",
Cc1ccc(C2C(C#N)=C(N)SC(N)=C2C#N)c(C)c1,inactive,
CC(C)c1ccc(NC(=O)C2=NNC(=O)CC2)cc1,active: 2.24 µM,
CC(=O)c1ccc(NC(=O)c2cc(C)nc3ccccc23)cc1,"inconclusive: 17.8 µM [activator, partial curve, poor fit]",
Clc1ccccc1-c1nc2ccccc2[nH]1,"inconclusive: 2.51 µM [activator, full curve, poor fit]",
O=C(/C=C/c1ccc2c(c1)OCO2)Nc1nc2ccc(F)cc2s1,"inconclusive: 7.08 µM [activator, partial curve, poor fit]",
c1ccc(Cc2nn3c(C4COc5ccccc5O4)nnc3s2)cc1 (stereo not drawn),"inconclusive: 17.8 µM [activator, partial curve, poor fit]",
Cn1cnnc1SCC(=O)Nc1ccc2nc(SCc3ccccc3Cl)sc2c1,"inconclusive: 12.6 µM [activator, partial curve, poor fit]",
COC(=O)c1c(-c2ccc(S(C)(=O)=O)cc2)sc2ccc(OC)cc12,active: 4.47 µM,
Cc1ccc(C(=O)Nc2ccc(Cl)cc2C(F)(F)F)c(Cl)c1,"inconclusive: 20 µM [activator, partial curve, poor fit]",
C#CCN1C(=O)S/C(=C\c2ccc(-c3ccc(C(=O)O)cc3C)o2)C1=O,"inconclusive: 11.2 µM [activator, partial curve, poor fit]",
CC(C)C(NC(=O)C1CC(=O)N(Cc2ccccc2)C1)c1nc2ccccc2[nH]1 (stereo not drawn),inactive,
O=C(CN1C(=O)c2ccccc2C1=O)NCc1ccc(F)cc1,inactive,
CCC(=O)Nc1cnc(NC(=O)c2cccc(F)c2)cc1C,"inconclusive: 0.631 µM [activator, full curve, poor fit]",
COc1cccc(C(=O)O/N=C/c2ccc(Sc3ccc(C)cc3)nc2)c1,active: 7.08 µM,
COc1ccc(OCc2cc(C(=O)NCC(C)Oc3cccnc3)no2)c(Cl)c1 (stereo not drawn),"inconclusive: 11.2 µM [activator, partial curve, poor fit]",
OCCCNC(=S)Nc1ccc(Br)cc1Cl,"inconclusive: 12.6 µM [activator, single point]",

Compound,Potency,activation
Cc1cc(C)nc(Nc2n[nH]c(-c3ccccc3Cl)n2)n1,"inconclusive: 11.2 µM [activator, partial curve, poor fit]",
CN(C)/C=C/C(=O)c1cnc(-c2ccccn2)s1,"inconclusive: 15.8 µM [activator, single point]",
NC(=O)c1cc(-c2csc(-c3cccnc3)n2)ccc1O,"inconclusive: 12.6 µM [activator, single point]",
Cc1ccc(NC(=O)c2sccc2C)cc1[N+](=O)[O-],"inconclusive: 8.91 µM [activator, partial curve, poor fit]",
Cc1cc(Br)ccc1NC(=O)CNC(=O)CSc1nccn1C,inactive,
N#C/C(=C\c1cccnc1)c1nc2c(s1)CCCC2,"inconclusive: 3.16 µM [activator, full curve, poor fit]",
CCc1ccc(-c2csc(NC(=O)Oc3ccccc3)n2)cc1,active: 7.94 µM,
CCOC1=C2[C@@H](CN(S(=O)(=O)c3ccccc3C)[C@H]2c2ccc(Cl)cc2)[C@H]2C(=O)NC(=O)[C@H]2C1,inactive,
Fc1ccccc1CSc1ccc(-c2ccco2)nn1,"inconclusive: 1.78 µM [activator, full curve, poor fit]",
CC(C)(CNC(=O)c1ccc(-c2ccccc2Cl)o1)N1CCOCC1,active: 10 µM,
CCOc1ccc(N=C(/C(C(=O)C(=O)N2CCOCC2)=C(\O)c2ccccc2)c2ccccc2)cc1,active: 7.94 µM,
O=C(Nc1ccc(CN2CCCCC2)cc1)c1cccc(Br)c1,"inconclusive: 10 µM [activator, partial curve, poor fit]",
O=C(CN1CCN(Cc2ccccc2)C1=O)NCCCN1CCOCC1,"inconclusive: 3.16 µM [activator, partial curve, poor fit]",
CC(C)OCCOc1ccc2oc(-c3ccco3)cc(=O)c2c1,active: 8.91 µM,
CC(=O)c1ccc(N2Cc3ccccc3C2)cc1,"inconclusive: 1.58 µM [activator, full curve, poor fit]",
CNc1cc(CSc2ccc(Cl)cc2)nc(C)n1,active: 5.01 µM,
CC(C)NC(=O)c1cccc2c(-c3ccc(F)c(F)c3)coc12,active: 1 µM,
N#C/C(=C\c1ccc(N2CCOCC2)o1)C(=O)NC1CCCCC1,"inconclusive: 17.8 µM [activator, single point]",
O=C(O)c1cccc(NC2=Nc3cccc4cccc2c34)c1,"inconclusive: 0.355 µM [activator, full curve, poor fit]",
COc1ccc(NC(=O)c2cc(S(=O)(=O)N3CCCCC3)ccc2OC)cc1,inactive,
CCn1cnc2cc(NCc3ccc(Cl)cc3)ccc21,"inconclusive: 6.31 µM [activator, full curve, poor fit]",
c1ccc2sc(NC3=NCN(CC4CCCO4)CN3)nc2c1 (stereo not drawn),"inconclusive: 11.2 µM [activator, partial curve, poor fit]",
O=C(C[n+]1ccccc1)N1CCCc2ccccc21,inactive,
COc1ccc(-c2ccc(C(=O)Nc3ccccc3)c3occc23)c(C)c1,"inconclusive: 2.24 µM [activator, full curve, poor fit]",
CN(C(=O)c1ccc2c(Cl)c3c(nc2c1)CCC3)c1ccccc1,active: 6.31 µM,

Compound,Potency,activation
CCOc1ccc(NC(=S)NC(=O)c2ccco2)cc1,active: 7.08 µM,
CCc1ccc(NC2=NCC(c3ccccc3)S2)cc1 (stereo not drawn),active: 11.2 µM,
C/C(CCC(C)C)=N\NC(=S)NCc1ccccc1,inactive,
CCOC(=O)c1oc2ccc(S(=O)(=O)n3nc(-c4ccccc4OC)cc3N)cc2c1C,inactive,
O=c1oc2ccccc2c2oc3cc(O)c(O)cc3c12,inactive,
O=C(/C=C/c1ccc(Cl)cc1Cl)Nc1cccc(S(=O)(=O)NC2=NCCC2)c1,"inconclusive: 1.58 µM [activator, partial curve, poor fit]",
COc1cccc(-n2c(SCC(=O)Nc3cc(C)ccc3C)nc3c(oc4ccccc43)c2=O)c1,inactive,
CCCCNC(=O)CCCCn1c(=S)[nH]c2c([nH]c3ccc(OC)cc32)c1=O,inactive,
Cc1ccc(/C(O)=C2\C(=O)C(=O)N(CCc3c[nH]c4ccccc34)C2c2cccnc2)cc1 (stereo not drawn),inactive,
Cc1ccc(NC(=O)NCCN2C(=O)C3C4C=CC(C4)C3C2=O)cc1 (stereo not drawn),"inconclusive: 1.58 µM [activator, full curve, poor fit]",
COc1ccccc1CN=c1c([N+](=O)[O-])nn(-c2ccc3c(c2)OCCO3)n1O,"inconclusive: 14.1 µM [activator, single point]",
CCCCN(C)CCNC(=O)c1ccc2c(=O)n(CCc3ccccc3)c(=O)[nH]c2c1,inactive,
Cc1cccc(C(=O)OCC(=O)c2ccc3c(c2)OCCO3)c1O,active: 6.31 µM,
O=C(COc1ccc(Cl)cc1[N+](=O)[O-])NC1CCCCC1,"inconclusive: 2 µM [activator, partial curve, poor fit]",
CCOc1ccc(OCC)c(NC(=O)C2CCCN(C(=O)c3ccc(Cl)cc3)C2)c1 (stereo not drawn),inactive,
C#CCOCCOCCOCCNc1nc(N2CCN(C(=O)CCCCCCCCCCNC(=O)[C@H](CCCCN)n3cc(C[C@@H](C)CC)nn3)CC2)nc(N2CCN(C(=O)CCCCCCCCCCNC(=O)[C@@H]([C@H](C)O)n3cc(C)nn3)CC2)n1,inactive,
O=C(NCc1ccc2c(c1)OCO2)c1ccc2c(=O)n(C3CCCC3)c(=O)[nH]c2c1,inactive,
COC(=O)c1ccc2c(c1)C(NC(C)=O)CCc1cc(OC)c(OC)c(OC)c1-2 (stereo not drawn),,inconclusive: -83.6% [activator]
CCCCN(C(C)=O)c1ccc2c(c1)C1CC2CCN1C(=O)OCc1ccccc1 (stereo not drawn),inactive,
CCCc1ccc(-c2csc(NC(=O)C3=COCCO3)n2)cc1,"inconclusive: 1.78 µM [activator, full curve, poor fit]",
Cc1cccc(NC(=O)c2cccc([N+](=O)[O-])c2O)c1C,,inconclusive: -53.5% [activator]
O=C(OCC(=O)c1cccc2ccccc12)c1ccc(CO)cc1,"inconclusive: 11.2 µM [activator, partial curve, poor fit]",
CC(=O)Nc1nnc(SCc2ccc(F)cc2)s1,"inconclusive: 14.1 µM [activator, single point]",
